# Assay results: PMC12136788
# Some of the results follow.
# T1: UNK ZnF1-3 (human, UniProt Q9C0B0 31-174)
# T1 sequence: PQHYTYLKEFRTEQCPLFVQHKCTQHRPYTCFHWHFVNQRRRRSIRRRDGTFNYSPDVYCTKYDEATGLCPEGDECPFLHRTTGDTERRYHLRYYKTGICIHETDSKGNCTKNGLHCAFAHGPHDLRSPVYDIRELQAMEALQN
# B1: chr14:59836542:59836543:+_ENSMUSG00000035469_ENSMUST00000043227|mus_hu|motif|central (ssRNA)
# RNA: GGGAGUUCUACAGUCCGACGAUCCCAAGCAAACACCUCUCCAUCAGCUGCCAGAGCCAUUGAAUGAUGUGAGCCACAAGCGGCUUCCACCACUUGCUUGAUCAAGAGAUUGGUACAGACCUGGACGGGAGCAAUGCCUUGGUUCAACAGAGGAUUGAGCAUCA
# B2: chr11:32953859:32953860:+_ENSG00000060749_ENST00000399302|hu_hu|FALSE|FALSE (ssRNA)
# RNA: GGGAGUUCUACAGUCCGACGAUCAUCUCCAAUUGGGCUACAGGAUAAAGAUGACUGCCUGGUUGUUUCCUGAAAAUUAACUACACUUGAAUUUGAUAGAUAACUAUGUAAGGAGUGCUGUGAACCAGUCAGUUGUGCCUGAAUCAACAGAGGAUUGAGCAUCA
# B3: chr11:87793471:87793472:-_ENSMUSG00000020483_ENSMUST00000020775|mus_mus|mus_mus_mus_hu_False|18_78 (ssRNA)
# RNA: GGGAGUUCUACAGUCCGACGAUCUGGACUUGAAAAUAAAAGAAUAAGCUGGAUCCCCCCACCCCUUACAUUGUCAACCCUACACGAGAGUUUUGAAGGCGACUCAUGAAAAUCAGCCUCAAUUGGCGCAAUGACCACCCCACCCAACAGAGGAUUGAGCAUCA
# B4: chr3:97503841:97503842:+_ENSG00000113966_ENST00000463745|hu_hu|motif|central (ssRNA)
# RNA: GGGAGUUCUACAGUCCGACGAUCAUCUGGAUGAUUCAGAAGAGUAUCGAGUUCUUCUUUGGCCACAACCAUUCUUAAUCGGUCACGGCUAUCAAUGACAAAAAUAAUAGCUUGGCCUUCUUUAUAAUAGUGUUCCCAGAGAUUCAACAGAGGAUUGAGCAUCA
# B5: chr1:60041781:60041782:+_ENSMUSG00000041040_ENSMUST00000036540|mus_hu|mus_mus_mus_hu_False|1_78 (ssRNA)
# RNA: GGGAGUUCUACAGUCCGACGAUCAAGUUUACAAUAGUAAAGUAAAUGCAGUAGUGGAAUGGCAAGUUUUAUUUUCCUUCACAAAAGAAAAUCUUUAUAACCCAGUCCUAGUCUUGGACAUAGUGAAAGCUAUAAAUGCCACUGCAACAGAGGAUUGAGCAUCA
# B6: chr7:135832113:135832114:+_ENSMUSG00000042105_ENSMUST00000118605|mus_mus|FALSE|FALSE (ssRNA)
# RNA: GGGAGUUCUACAGUCCGACGAUCACAGGAAAAAUACAGCCCCACUGGCACUUUAACCAUAAGUCCUGCAAAAAGAAGGAAAAUCUUAAAAGUCAUGGCGAGAACGCCAUCGGACUUAGGUUCCGCAGCGUUGGCAGCUGGAGCCAACAGAGGAUUGAGCAUCA
# Target: T1, UNK ZnF1-3
# Assay: nsRBNS (natural sequence RNA bind-n-seq); RBNS binding buffer (assumed for nsRBNS): 25 mM Tris pH 7.5, 150 mM KCl, 3 mM MgCl2, 0.01% Triton X-100, 500 ug/ml BSA, 20 U/ml SUPERase-In, 4 C; UNK is unkempt and MSI1 is Musashi-1; names of the RNAs are library labels; protein concentration not given here; high values mean tight binding
row,Binder,binding signal
1,B1,1.13 enrichment R
2,B2,1.28 enrichment R
3,B3,1.6 enrichment R
4,B4,0.839 enrichment R
5,B5,0.739 enrichment R
6,B6,1.03 enrichment R
